Experimental data: ChEMBL document CHEMBL4888484, “Replenishing the malaria drug discovery pipeline: Screening and hit evaluation of the MMV Hit Generation Library 1 (HGL1) against asexual blood stage Plasmodium falciparum ,using a nano luciferase reporter read-out” (2022)
Out of some 150,000 compounds screened, about 540 (0.36%) showed an effect of 50% or more. The list shows a part of the results.

Test system: Plasmodium falciparum
Assay: Primary screen in NF54 nanoGlo assay, in single point, at 2uM, 72h; a lower Z score goes with more inhibition
Assay type: functional, Erythrocyte
Conditions: timepoint 72 hour

SMILES | % Inhibition [%] | Z score
O=C(Nc1ccc(N2CCC(Cc3ccccc3)CC2)cc1C(=O)O)c1ccc(F)cc1 | 30 | -4.31
Cc1cc(C(=O)N2CCCC2)c(C)n1-c1ccc(O)cc1 | -15 | 2.28
CCc1nc(CCNC(=O)Cc2sc(N)nc2C)no1 | -22 | 2.33
Cc1ccc(N(CCC(C)(C)O)C(C)C)cc1 | -13 | 1.5
Cc1ccccc1C(=O)Nc1ccccc1-c1ccccc1NC(=O)c1ccccc1C | 3 | -0.45
c1nc2c(c(N3CCOCC3)n1)CNCC2 | -6 | 0.98
CC(C)c1nnc(CCC(=O)N2CC(C)N(C)CC2C)o1 (configuration not stated) | -7 | 0.65
COCC1(C(=O)OC(C)(C)C)CCCN1CC(O)COC(C)C (configuration not stated) | 3 | -0.43
CN(C)c1nc(-c2cn[nH]c2)ncc1F | -1 | 0.13
NC(=O)NC(=O)COc1ccc(Br)cc1 | 32 | -0.64
COc1cc(N2CCC[C@H](c3nc(C(C)C)no3)C2)nc(N)n1 | -2 | 0.28
CN(C)C(=O)[C@@H]1CN(c2ccncc2F)CCO1 | 4 | -0.76
CC(C)c1nc(CN(C)C(=O)Cc2c[nH]c(=O)[nH]c2=O)no1 | -13 | 2.57
CCNc1ncc(C(=O)N2CCC[C@H](c3nccn3CC3CC3)C2)cn1 | -25 | 2.63
CN(CCc1ccccn1)c1ccc(Cl)cn1 | 3 | -0.4
CCNC(=O)c1ccc(NC(=O)c2c[nH]c(C)n2)cc1 | 15 | -1.91
COCCN(Cc1cc(Cl)ccc1OS(C)(=O)=O)C(=O)C(C)C | -7 | 1.09
O=C(CNC(=O)OCc1ccccc1)NC1CCN(c2cc3c(nn2)CCCC3)CC1 | -24 | 4.13
Cn1nccc1CNC(=O)c1ccc(CN2CCCCC2=O)cc1 | -4 | 0.61
CC(C)CCC(=O)N[C@H]1CC(=O)N(Cc2cccc3ccccc23)C1 | -8 | 1.53
N#Cc1cnn2c(NC3CCCCCC3)c(-c3cccc(Cl)c3)[nH]c12 | -16 | 2.28
COC1(c2noc(-c3ccc4c(c3)ncn4C)n2)CCCC1 | -9 | 1.76

SMILES | % Inhibition [%] | Z score
Cc1noc(C)c1C(C)(C)C(=O)N[C@@H](C)c1ccncc1F | -11 | 0.94
CC[C@]1(C(N)=O)CCCN(C(=O)c2cc(C)n(CCCOC)c2C)C1 | -10 | 1.34
Oc1ccccc1/C=C/c1nc(-c2ccccc2O)n(-c2ccccc2)n1 | -8 | 0.88
CC(C)OCCS(=O)(=O)N1CC2CCCC2C1 (configuration not stated) | -8 | 1.21
O=C(OCc1ccccc1)N1CC[C@H](OCC2CC2)C1 | -6 | 0.87
O=C(NCc1cccnc1N1CCOCC1)NC1CCCC1 | -5 | 0.55
O=S(=O)(C[C@H]1CCCCO1)NCc1noc(-c2ccccc2)n1 | -3 | 0.51
O=C(Cn1cncn1)N1CCN(Cc2ccc3c(c2)OCO3)CC1 | 2 | -0.16
Cc1cc(C(=O)NCC2CC(O)CN2Cc2ccccc2)n(C)n1 (configuration not stated) | -9 | 1.34
CC(O)CC1COCCN1C(=O)NC1CCCc2ccc(F)cc21 (configuration not stated) | -9 | 0.91
O=C(O)c1sccc1CN1CC[C@H](c2ccccc2)[C@H](CO)C1 | -2 | 0.34
COCCc1nc(-c2cccnc2)n(Cc2ccccc2C)n1 | 1 | -0.26
COCCN1C(=O)CC(CC(=O)N2CC3CCC2C3)(c2ccccc2Cl)C1=O (configuration not stated) | 10 | -1.26
Cc1ccc(CNC(=O)N(C)[C@H]2CCc3nn(CC4CC4)c(=O)n3CC2)cc1 | -10 | 1.59
CC[C@@H](C(=O)Nc1cc(C)ns1)N(C)C | -5 | 0.53
CCN1CCN(C(=O)c2c(C)oc3ncn(CC(C)C)c(=O)c23)CC1 | -3 | 0.57
CCN(Cc1noc(C)n1)C(=O)c1ccc([C@@H]2CCCN2)s1 | -7 | 1.11
O=c1c2cc(-c3ccc4c(c3)OCO4)nn2ccn1Cc1c(F)cccc1Cl | -8 | 1.07
O=C(c1nc2ccccc2s1)N1CCNC[C@H](O)C1 | -14 | 1.28
O=C(Nc1ccc(Cl)cc1O)c1cccn2c(Cc3ccccc3)nnc12 | -7 | 1.2
CCC(CC)C(=O)N1CCC(NS(=O)(=O)CC2(C)CC2)CC1 | -3 | 0.42
CN1CCC[C@H](C(=O)NCCN2Cc3cc(Cl)ccc3OCC2=O)C1 | -8 | 1.53

SMILES | % Inhibition [%] | Z score
COCCn1c(C)cnc1CCNC(=O)Nc1ccc2c(c1)OCCO2 | -2 | 0.33
O=C(CCN1N=C(c2ccccc2)CCC1=O)NCc1ccccc1 | -16 | 2.61
CCCN(C)C(=O)COc1ccc(NC(C)=O)cn1 | -21 | 3.58
Cc1ccc(-n2ccc3nc(N4CCc5ccccc5C4)ncc3c2=O)cc1C | 39 | -4.99
O=C(c1ccc(CS(=O)(=O)Cc2ccccc2F)o1)N1CCOCC1 | 0 | 0.06
CN(c1ccc2ccccc2n1)S(=O)(=O)c1cccnc1 | -8 | 1.44
Cc1ccc(Cn2c(=O)c(C(=O)N[C@@H](C)c3ccccc3)nn(-c3cc(C)cc(C)c3)c2=O)cc1 | 5 | -0.6
Cc1ccc(C)c([C@H]2CC(=O)Nc3c2c(C)nn3-c2nncc(-c3ccccc3)n2)c1 | 13 | -2.38
COc1cc(NC(=O)CCc2nc(CS(=O)(=O)c3ccc(C)cc3)no2)cc(OC)c1OC | 4 | -0.77
CN1CCN(CC(=O)NCCc2ccc(F)cc2)C(C)(C)C1=O | -10 | 2.09
C#CCN1CCN(C(=O)c2cc3c([nH]c2=O)CCCCC3)CC1 | -10 | 1.19
Cn1cc(CNc2ccc3c[nH]nc3c2)cn1 | 31 | -0.37
O=C1C2C3CCC(CC3)C2C(=O)N1c1ccccc1 (configuration not stated) | -8 | 0.99
O=C(NC[C@H]1CCCS1(=O)=O)N1CCc2cc(-c3ccccc3)oc2C1 | -12 | 1.21
CCN1CCC[C@@H]1CNC(=O)c1c(C)c(S(=O)(=O)N2CCC(C)CC2)c(C)n1C | -4 | 0.78
CCN1CN([C@@H](C)C(=O)N(C)C)CC1=O | -12 | 1.02
C[C@@H](CC(=O)c1ccccc1)NC(=O)CNC(=O)C(C)(C)C | -5 | 0.75
CCOC(=O)c1nc2ccccc2nc1N1CCCN(S(=O)(=O)c2c(C)cc(C)cc2C)CC1 | -15 | 2.19
Cn1cnc2ccc(-c3ccc4c(c3)CCN4)cc21 | -14 | 1.48
Cc1cc(C)c(C(=O)O)cc1NC(=O)C[C@H]1CCCCO1 | 8 | -0.97
Cc1nn(C)cc1-c1csc(NC(=O)c2ccccc2COc2ccc(F)cc2F)n1 | -18 | 2.67
O=C(NCc1cccnc1)c1cccc(OCCc2ccccc2)c1 | -19 | 2.22

SMILES | % Inhibition [%] | Z score
O=C(NCc1ccco1)C(F)(F)C(F)(F)C(=O)NCc1ccco1 | -3 | 0.39
CC(C)(C)c1ccc(Cn2cnc3c2c(=O)n(CCc2ccccc2)c(=O)n3-c2ccc(Cl)cc2)cc1 | -5 | 0.7
Cc1nn(CC(=O)NCCCN2CCCC2=O)c(=O)c2nc(-c3ccccc3)sc12 | -18 | 2.46
CCCOc1ccc(CN2CCO[C@]3(CCOC3)C2)cc1OCC | -13 | 1.56
Cc1nc(CN[C@@H](C)CCn2ccnc2C)cs1 | -4 | 0.6
CN(C)S(=O)(=O)NCCCC[C@H]1CCCO1 | -21 | 2.13
CS(=O)(=O)CC1(CC(=O)N(CC#N)c2cccc(F)c2)CC1 | -12 | 1.27
CC(C)c1cc(C(=O)N(C)Cc2csc(-c3ccccc3)n2)on1 | -20 | 2.18
CCc1nc(N2CCC(C(=O)NCc3ccc(N(C)C)cc3)CC2)c2c(C)scc2n1 | 4 | -0.7
Cc1cc(C(=O)NCc2ccccc2F)c2c(=O)n(C)c(=O)n(C)c2n1 | -9 | 1.18
C[C@@H](CCN1CCCC1=O)NC(=O)Cc1cccc(O)c1 | -9 | 1.27
CN(C(=O)Cn1ccc2ccccc2c1=O)c1ccccc1 | -1 | 0.24
Cc1ccnc2ccc(C(=O)N3CC(n4ccnn4)C3)cc12 | 4 | -0.48
Cc1cnc2c(Cl)c(C(=O)N3CCN4CCN(C)C(=O)[C@@H]4C3)nn2c1 | -12 | 2.33
COCCCNC(=O)[C@]1(C)Cn2nc(-c3ccccc3)cc2C(=O)N1Cc1ccc(Cl)cc1 | 3 | -0.45
Cc1cc2c(cc1C)O[C@H](C(=O)NCC1(c3ccccn3)CC1)C2 | -4 | 0.37
O=C(Cc1cccnc1)N[C@H]1CCCN(Cc2cccc(Cl)c2)CC1 | -12 | 1.63
O=C(Nc1ccc(OCc2ccccc2)cc1)N[C@H]1CCOC1 | -15 | 1.92
CCCn1cnnc1CN(C)Cc1ccncc1C | -11 | 1.06
Cc1ccc(NC(=O)Cn2nc3ccc(C(=O)NCc4ccccc4)cn3c2=O)cc1 | -20 | 1.76
